Among the data in paper PMC9911399, “Two distinct binding modes provide the RNA-binding protein RbFox with extraordinary sequence specificity” are binding signal values, retold here.

Positions count from the first letter of the chain named. The list shows a part of the results.

To fix the notation:
B1: AUCAGGA (DNA:RNA)
RNA: GGGAGACCGGAAUUCAGAUUGUCCAUCAGGAUUAAAUCCCGUCGUAGCCACCA
DNA 1: CAATCTGAATTCCGGTCTCCC
DNA 2: TGGTGGCTACGACGGGATT
B2: GUGUCGA (DNA:RNA)
RNA: B1 RNA with A25G, C27G, A28U, G29C
DNA 1: CAATCTGAATTCCGGTCTCCC
DNA 2: TGGTGGCTACGACGGGATT
B3: UAGGAAC (DNA:RNA)
RNA: GGGAGACCGGAAUUCAGAUUGUCCUAGGAACUUAAAUCCCGUCGUAGCCACCA
DNA 1: CAATCTGAATTCCGGTCTCCC
DNA 2: TGGTGGCTACGACGGGATT
B4: UGGCAAU (DNA:RNA)
RNA: B3 RNA with A26G, G28C, C31U
DNA 1: CAATCTGAATTCCGGTCTCCC
DNA 2: TGGTGGCTACGACGGGATT
B5: AGUCCAC (DNA:RNA)
RNA: B3 RNA with U25A, A26G, G27U, G28C, A29C
DNA 1: CAATCTGAATTCCGGTCTCCC
DNA 2: TGGTGGCTACGACGGGATT
B6: CGAGAGA (DNA:RNA)
RNA: B1 RNA with A25C, U26G, C27A, A28G, G29A
DNA 1: CAATCTGAATTCCGGTCTCCC
DNA 2: TGGTGGCTACGACGGGATT
B7: GGAAGUC (DNA:RNA)
RNA: B1 RNA with A25G, U26G, C27A, G30U, A31C
DNA 1: CAATCTGAATTCCGGTCTCCC
DNA 2: TGGTGGCTACGACGGGATT
B8: UUUAACU (DNA:RNA)
RNA: B1 RNA with A25U, C27U, G29A, G30C, A31U
DNA 1: CAATCTGAATTCCGGTCTCCC
DNA 2: TGGTGGCTACGACGGGATT
B9: UAACAUU (DNA:RNA)
RNA: B3 RNA with G27A, G28C, A30U, C31U
DNA 1: CAATCTGAATTCCGGTCTCCC
DNA 2: TGGTGGCTACGACGGGATT
B10: CUCAAAG (DNA:RNA)
RNA: B1 RNA with A25C, G29A, G30A, A31G
DNA 1: CAATCTGAATTCCGGTCTCCC
DNA 2: TGGTGGCTACGACGGGATT
B11: ACUCAUA (DNA:RNA)
RNA: B1 RNA with U26C, C27U, A28C, G29A, G30U
DNA 1: CAATCTGAATTCCGGTCTCCC
DNA 2: TGGTGGCTACGACGGGATT
B12: GAGAAGG (DNA:RNA)
RNA: B3 RNA with U25G, G28A, A30G, C31G
DNA 1: CAATCTGAATTCCGGTCTCCC
DNA 2: TGGTGGCTACGACGGGATT
B13: GCACGCC (DNA:RNA)
RNA: B1 RNA with A25G, U26C, C27A, A28C, G30C, A31C
DNA 1: CAATCTGAATTCCGGTCTCCC
DNA 2: TGGTGGCTACGACGGGATT
B14: UGCGGAU (DNA:RNA)
RNA: B3 RNA with A26G, G27C, A29G, C31U
DNA 1: CAATCTGAATTCCGGTCTCCC
DNA 2: TGGTGGCTACGACGGGATT
B15: GGGAUCA (DNA:RNA)
RNA: B1 RNA with A25G, U26G, C27G, G29U, G30C
DNA 1: CAATCTGAATTCCGGTCTCCC
DNA 2: TGGTGGCTACGACGGGATT
B16: GGAUAUU (DNA:RNA)
RNA: B3 RNA with U25G, A26G, G27A, G28U, A30U, C31U
DNA 1: CAATCTGAATTCCGGTCTCCC
DNA 2: TGGTGGCTACGACGGGATT
B17: GAGGGCC (DNA:RNA)
RNA: B3 RNA with U25G, A29G, A30C
DNA 1: CAATCTGAATTCCGGTCTCCC
DNA 2: TGGTGGCTACGACGGGATT
B18: ACAGGGG (DNA:RNA)
RNA: B1 RNA with U26C, C27A, A28G, A31G
DNA 1: CAATCTGAATTCCGGTCTCCC
DNA 2: TGGTGGCTACGACGGGATT
B19: UGUAACU (DNA:RNA)
RNA: B3 RNA with A26G, G27U, G28A, A30C, C31U
DNA 1: CAATCTGAATTCCGGTCTCCC
DNA 2: TGGTGGCTACGACGGGATT
B20: UCCUCGG (DNA:RNA)
RNA: B1 RNA with A25U, U26C, A28U, G29C, A31G
DNA 1: CAATCTGAATTCCGGTCTCCC
DNA 2: TGGTGGCTACGACGGGATT

The target of this experiment is T1, RBFOX1 RRM RbFoxmut (Fox-RRM*) (Homo sapiens, UniProt Q9NWB1 109-208, R118D;E147R;N151S;E152T).
T1 sequence: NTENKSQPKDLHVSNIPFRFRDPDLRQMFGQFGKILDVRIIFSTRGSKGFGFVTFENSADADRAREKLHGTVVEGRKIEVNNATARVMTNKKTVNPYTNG
In words: EMSA; HiTS-Eq, 1 nM pool, 10 min; buffer printed only for the single-RNA assays: 10 mM Tris pH 7.5, 150 mM NaCl, 3.4 mM EDTA, 0.001% NP-40, 30 C. Particulars: tags: His6 N-terminal (pET28a); label: 5' 32P. The essentials:
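Purified wild-type or mutant RbFox RRM at increasing concentrations was equilibrated with 1 nM of 5′-radiolabelled RNA carrying 7 randomized nucleotides for 10 min in 50 µL. Unbound RNA was separated by 8% native PAGE and sequenced. Relative association constants came from read-count changes of each RNA species compared with the control reaction, normalised to the cognate motif.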
As for B1, the binding signal is 0.0805 KA relative to UGCAUGU.

For the molecule B2, the binding signal is 0.101 KA relative to UGCAUGU.

As for B3, the binding signal is 0.0532 KA relative to UGCAUGU. To B4 belongs 0.0495 KA relative to UGCAUGU. To B5 belongs 0.1 KA relative to UGCAUGU; to B6, 0.1 KA relative to UGCAUGU.

For the molecule B7, the binding signal was 0.111 KA relative to UGCAUGU. As for B8, the figure is 0.0936 KA relative to UGCAUGU; as for B9, 0.0675 KA relative to UGCAUGU; as for B10, 0.129 KA relative to UGCAUGU.

For B11, the binding signal is 0.131 KA relative to UGCAUGU. In the case of B12, the binding signal is 0.0608 KA relative to UGCAUGU. B13: the binding signal is 0.115 KA relative to UGCAUGU.

B14: the binding signal was 0.112 KA relative to UGCAUGU. As for B15, the figure is 0.232 KA relative to UGCAUGU. Turning to B16, the binding signal was 0.105 KA relative to UGCAUGU. For B17, the binding signal is 0.163 KA relative to UGCAUGU. As for B18, the figure is 0.106 KA relative to UGCAUGU; as for B19, 0.091 KA relative to UGCAUGU.

For the molecule B20, the binding signal was 0.0845 KA relative to UGCAUGU.
